Source: a compilation of properties of binary mixtures (doi:10.1021/acs.jced.9b00875)
Some of these densities may be calculated back from excess volumes.

Test: xn = mol fraction of the nth substance listed
Conditions: 101 kPa

CNC(C)=O + CCCC[n+]1ccn(C)c1.F[B-](F)(F)F
mass density [kg/m3]
Conditions | 293.15 K | 298.15 K | 303.15 K | 308.15 K | 313.15 K | 318.15 K
x2 = 0 | 958.1 | 954.7 | 951.3 | – | 944.1 | 940.4
x2 = 0.0711 | – | – | 991.3 | 987.9 | 984.4 | –
x2 = 0.1409 | – | 1027.1 | – | 1020.7 | 1017.3 | –
x2 = 0.2042 | 1055.4 | – | 1049.3 | 1046 | 1042.7 | 1039.3
x2 = 0.27 | 1078.1 | 1075.1 | 1072.1 | 1068.9 | 1065.6 | 1062.1
x2 = 0.3564 | 1103.6 | 1100.6 | 1097.6 | 1094.5 | 1091.2 | 1087.7
x2 = 0.4343 | – | 1120.2 | 1117.2 | 1114.1 | 1110.8 | 1107.4
x2 = 0.4992 | 1137.3 | – | 1131.5 | 1128.3 | – | 1121.7
x2 = 0.5552 | 1148.3 | 1145.5 | 1142.5 | 1139.4 | 1136.1 | 1132.8
x2 = 0.6389 | 1162.9 | 1160 | 1157.1 | 1154 | 1150.8 | 1147.4
x2 = 0.714 | 1174.2 | 1171.4 | 1168.5 | – | 1162.1 | 1158.8
x2 = 0.7774 | – | – | 1176.9 | 1173.8 | 1170.5 | 1167.1
x2 = 0.8495 | 1191.2 | 1188.4 | 1185.4 | 1182.2 | 1178.9 | 1175.4
x2 = 0.9302 | 1199.5 | 1196.6 | 1193.5 | 1190.2 | 1186.7 | 1183.1

CCCC[n+]1ccn(C)c1.F[B-](F)(F)F + CNC(C)=O
x1 = 1
Conditions | mass density [kg/m3]
298.15 K | 1202.6
303.15 K | 1199.3
308.15 K | 1195.9
313.15 K | 1192.2
318.15 K | 1188.3
